In the supplement of paper PMC10126150:
Sequences with one replicate were seen in a single cluster, so their values are uncertain.

Test system: ATP
Assay: switch fluorescence ratio, 500 uM ATP over buffer (Cy3 cluster intensity, sum of 5 cycles each) (fold (ratio)); higher = stronger signal-on switching upon ATP binding; sequences stand for … in TCGTCGGCAGCGTCAGATGTGTATAAGAGACAGTTTTTTTTTTTTTTTTTTTTTTTTT…TC
Conditions: aptamer strand: ATP DNA aptamer (quencher-CACCTGGGGGAGTATTGCGGAGGAAGG + anchor), 100 nM annealed; ATP concentration: 500 uM; one replicate
In short: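 Values give the fluorescence ratio for each switch-domain sequence, averaged from per-cluster ratios of summed target-cycle to summed buffer-cycle Cy3 intensity. The Cy3-labelled switching-strand clusters sat on a modified Illumina MiSeq flow-cell, were annealed to 100 nM quencher-labelled ATP aptamer, and were imaged in selection buffer, then after 15 min with 500 uM ATP at 22 °C. Five cycles ran with NaOH stripping and re-annealing between them, and clusters outside 100-1000 RFU were excluded.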
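Further: ATP exposure 15 min at 22 °C before imaging.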

GTTATAAGCG was tested, and the switch fluorescence ratio was 0.933.
TGGTAACCAG was tested, and the switch fluorescence ratio was 1.03.
CAGGTGATT gave a switch fluorescence ratio of 1.27.
For TCTAAATGCC, the switch fluorescence ratio was 1.34.
For AGCTCGAGGG, the switch fluorescence ratio was 0.997.
For GCCACTTATT, the switch fluorescence ratio was 0.952.
In the case of CGGTAACGA, the switch fluorescence ratio is reported as 0.996.
Sequence AGCTGTGGAT has a switch fluorescence ratio of 1.05.
GAGATACCGT was tested, and the switch fluorescence ratio was 1.02.
ACCATGTCGG gave a switch fluorescence ratio of 0.969.
ACACTAAGCT gave a switch fluorescence ratio of 1.05.
With CGGTACACTC the switch fluorescence ratio was 1.06.
Work on GTGAGGTTCG yielded a switch fluorescence ratio of 1.01.
Work on TATGCATCTT yielded a switch fluorescence ratio of 1.01.
With GGAGTCCGCA the switch fluorescence ratio was 1.9.
For CAATGCGCTT, the switch fluorescence ratio was 1.
GAAGCATATG showed a switch fluorescence ratio of 1.09.
AAATGGCACC gave a switch fluorescence ratio of 1.04.
TGGCTACGTG showed a switch fluorescence ratio of 0.979.
In the case of GGCGTCCCCT, the switch fluorescence ratio is reported as 1.05.
TCGATCACCG showed a switch fluorescence ratio of 0.991.
Sequence GGATTGCCAG has a switch fluorescence ratio of 0.974.
Sequence GATTAATATT has a switch fluorescence ratio of 0.992.
Work on ATGGGACATA yielded a switch fluorescence ratio of 1.08.
ACCTGGCTAA gave a switch fluorescence ratio of 1.03.
Sequence CGTATAAGC has a switch fluorescence ratio of 0.987.
For GGAGAAACCT, the switch fluorescence ratio was 2.67.
Sequence TCTTGGCCGT has a switch fluorescence ratio of 0.98.
Work on CCCAACCCAG yielded a switch fluorescence ratio of 1.14.
In the case of AAGAACCCTT, the switch fluorescence ratio is reported as 0.985.
CGGCTTGTGA showed a switch fluorescence ratio of 1.02.
ACCCATCGTA was tested, and the switch fluorescence ratio was 0.947.
Work on CGTTAATTCC yielded a switch fluorescence ratio of 1.07.
With CTATTTCCGA the switch fluorescence ratio was 1.09.
For ACTTTTATAA, the switch fluorescence ratio was 1.02.
TCTTGACGGG was tested, and the switch fluorescence ratio was 1.04.
ACGGGACCAA was tested, and the switch fluorescence ratio was 1.17.
ATATCCGCGG gave a switch fluorescence ratio of 1.07.
With AGCCTGAGGC the switch fluorescence ratio was 0.959.
Sequence AGACCTGGGA has a switch fluorescence ratio of 0.982.
In the case of GGGTGTCACC, the switch fluorescence ratio is reported as 0.976.
GCAACTTTT gave a switch fluorescence ratio of 1.01.
For CTATCGGTCC, the switch fluorescence ratio was 1.02.
Sequence TTGAAAGTGG has a switch fluorescence ratio of 0.973.
Work on TTTTTACAA yielded a switch fluorescence ratio of 1.
In the case of CATATGGG, the switch fluorescence ratio is reported as 0.965.
For TATTTATCAT, the switch fluorescence ratio was 0.985.
TGTGCCTAT gave a switch fluorescence ratio of 0.978.
TACAATGAGG gave a switch fluorescence ratio of 1.01.
CATATTAACT showed a switch fluorescence ratio of 0.995.
ATTTCTCTTT was tested, and the switch fluorescence ratio was 1.01.
CCTCTAAGTG showed a switch fluorescence ratio of 1.42.
GTGGGGAAGC was tested, and the switch fluorescence ratio was 0.952.
Work on TTTCGGATCT yielded a switch fluorescence ratio of 1.01.
Work on TTGCGGCTGC yielded a switch fluorescence ratio of 0.985.
Sequence ATTAACCTC has a switch fluorescence ratio of 1.07.
With ATTCTATGGT the switch fluorescence ratio was 0.991.
In the case of TTGGTGCGAG, the switch fluorescence ratio is reported as 0.974.
Work on CGACAAGGTA yielded a switch fluorescence ratio of 1.17.
TTTACTAAAA was tested, and the switch fluorescence ratio was 1.06.
In the case of CTTGGATTGT, the switch fluorescence ratio is reported as 0.965.
GGTGTTGGGT showed a switch fluorescence ratio of 1.
With GACGTATGGT the switch fluorescence ratio was 0.997.
Sequence GCCATCACTG has a switch fluorescence ratio of 0.972.
For GGGCACGCCG, the switch fluorescence ratio was 0.983.
GCTTAACGCA gave a switch fluorescence ratio of 0.993.
AACTGACGAG showed a switch fluorescence ratio of 1.03.
Work on TTCGTTTG yielded a switch fluorescence ratio of 1.01.
GTTGCGCAAT showed a switch fluorescence ratio of 1.39.
GCAATAGGAC was tested, and the switch fluorescence ratio was 3.45.
GTGGGTAAAT showed a switch fluorescence ratio of 1.
AGGTGAGCAA showed a switch fluorescence ratio of 1.31.
GCAGCCATGG gave a switch fluorescence ratio of 1.05.
Work on CAGTGAATCG yielded a switch fluorescence ratio of 0.991.
CAGGGGGAGC showed a switch fluorescence ratio of 1.12.
For AGATTACTTA, the switch fluorescence ratio was 1.01.
GAGGAGGTGG was tested, and the switch fluorescence ratio was 0.995.
Sequence AGCTGTTGAA has a switch fluorescence ratio of 0.987.
ACCGATTGTC gave a switch fluorescence ratio of 1.02.
In the case of TTTAACTGTC, the switch fluorescence ratio is reported as 1.68.
For CCATTGTAT, the switch fluorescence ratio was 0.994.
Sequence TTCCGGATAT has a switch fluorescence ratio of 1.03.
Work on TCAATGGTG yielded a switch fluorescence ratio of 0.991.
GATAGATCGG showed a switch fluorescence ratio of 0.96.
Work on CTGCAAGTCT yielded a switch fluorescence ratio of 1.16.
For TGCTGATCA, the switch fluorescence ratio was 0.957.
ACCGAGCCCT was tested, and the switch fluorescence ratio was 1.04.
With TTACGAGCAC the switch fluorescence ratio was 1.66.
In the case of AAGTCCGCGA, the switch fluorescence ratio is reported as 4.09.
With TAGTTAATGG the switch fluorescence ratio was 0.989.
With TTAGAACA the switch fluorescence ratio was 0.993.
ACTTTTTGGA was tested, and the switch fluorescence ratio was 1.01.
With GAGGGAAATT the switch fluorescence ratio was 1.04.
CTAGTGTGAT showed a switch fluorescence ratio of 0.92.
Work on TAGTACCCTA yielded a switch fluorescence ratio of 1.01.
For ACCGTAGTTC, the switch fluorescence ratio was 2.08.
With TATTTACGGC the switch fluorescence ratio was 1.01.
CGCCAGCGAG gave a switch fluorescence ratio of 1.04.
With GGCGCCGCG the switch fluorescence ratio was 1.02.
AACGAGGGGG gave a switch fluorescence ratio of 0.994.
CGCATTCCAC was tested, and the switch fluorescence ratio was 4.03.
With TCCGAACGAT the switch fluorescence ratio was 3.43.
Sequence TTGAGAGCCT has a switch fluorescence ratio of 1.08.
Sequence ATTTCCTGGC has a switch fluorescence ratio of 1.1.
GGAGATCGTC was tested, and the switch fluorescence ratio was 0.956.
GTTGGATTCT gave a switch fluorescence ratio of 0.978.
In the case of TAGGGAGCCA, the switch fluorescence ratio is reported as 1.04.
AGTCCCTACA gave a switch fluorescence ratio of 0.998.
Work on GGCAGTAAGG yielded a switch fluorescence ratio of 1.
With CAATAAGTGC the switch fluorescence ratio was 0.991.
Sequence CGCGTCTACC has a switch fluorescence ratio of 1.18.
ATGTCAACCC showed a switch fluorescence ratio of 0.989.
For AATTTGGTTC, the switch fluorescence ratio was 0.965.
CCTTACATCA was tested, and the switch fluorescence ratio was 1.02.
Work on AACGCGCCTT yielded a switch fluorescence ratio of 1.02.
Sequence ACAAGAGT has a switch fluorescence ratio of 1.01.
Sequence ACAGAATTCA has a switch fluorescence ratio of 1.02.
For TTCTGCTAAT, the switch fluorescence ratio was 1.07.
ATTAGATATC gave a switch fluorescence ratio of 0.972.
In the case of CAACAGACGG, the switch fluorescence ratio is reported as 1.22.
For TTGGATGCGC, the switch fluorescence ratio was 0.933.
In the case of GATGGAGGCT, the switch fluorescence ratio is reported as 0.965.
Work on TTGGTCTTGG yielded a switch fluorescence ratio of 0.977.
For TATCCCAGTA, the switch fluorescence ratio was 1.
In the case of AGACTCAGTC, the switch fluorescence ratio is reported as 1.01.
For TTTCTTCTGG, the switch fluorescence ratio was 1.02.
In the case of TGGCCTGGTG, the switch fluorescence ratio is reported as 1.45.
With TTCGCGATTG the switch fluorescence ratio was 1.11.
Work on TGGATAACG yielded a switch fluorescence ratio of 0.967.
CCGCTTGTGG gave a switch fluorescence ratio of 1.09.
In the case of GTCACATATT, the switch fluorescence ratio is reported as 1.01.
CGGTTGCAGC was tested, and the switch fluorescence ratio was 0.991.
For CCTGTGCGTT, the switch fluorescence ratio was 1.65.
CTACATTGA was tested, and the switch fluorescence ratio was 1.03.
Work on CTAGATTGGT yielded a switch fluorescence ratio of 0.943.
For CTCGATAGCC, the switch fluorescence ratio was 1.03.
In the case of ACCCCCTACA, the switch fluorescence ratio is reported as 1.32.
Sequence GCGATCCATT has a switch fluorescence ratio of 0.982.
Sequence GTGCAGTTCG has a switch fluorescence ratio of 0.978.
TATGTAGTGG showed a switch fluorescence ratio of 0.985.
TACAACCCCA was tested, and the switch fluorescence ratio was 1.02.
For TCCGCCATCG, the switch fluorescence ratio was 2.27.
With TGTTCGTGTA the switch fluorescence ratio was 0.986.
AGCTCAGTCG was tested, and the switch fluorescence ratio was 0.985.
Work on TTAAATTTGT yielded a switch fluorescence ratio of 0.989.
ATGTGGACAG gave a switch fluorescence ratio of 1.05.
Work on GCCATAAGTA yielded a switch fluorescence ratio of 0.971.
AATGTTATTT was tested, and the switch fluorescence ratio was 1.01.
For GGTGCTACAA, the switch fluorescence ratio was 0.988.
AATGGTTAGC showed a switch fluorescence ratio of 1.03.
In the case of ATGGCGTATG, the switch fluorescence ratio is reported as 0.991.
Sequence TTGGTCAAGT has a switch fluorescence ratio of 1.
GGGACCTTAG was tested, and the switch fluorescence ratio was 0.982.
TAAATCCCAG showed a switch fluorescence ratio of 0.987.
TTCATTTTCT was tested, and the switch fluorescence ratio was 0.942.
Work on AGGCGCTTG yielded a switch fluorescence ratio of 1.06.
With CATTCAGGAC the switch fluorescence ratio was 1.04.
GGGCAGGTGT was tested, and the switch fluorescence ratio was 1.37.
With ATATGGCCCG the switch fluorescence ratio was 0.959.
With CGGTCGAGCA the switch fluorescence ratio was 1.01.
TTAGACGCGT was tested, and the switch fluorescence ratio was 1.07.
With GGGCCCAATC the switch fluorescence ratio was 0.988.
In the case of GTGTCAGCGA, the switch fluorescence ratio is reported as 0.985.
In the case of ATGGAGCGGC, the switch fluorescence ratio is reported as 1.02.
ATTAGGCGGT was tested, and the switch fluorescence ratio was 0.982.
Sequence CTAGTTAAAT has a switch fluorescence ratio of 0.995.
With TACATAGTAA the switch fluorescence ratio was 1.06.
For CGTGCGGAAG, the switch fluorescence ratio was 1.03.
For GGTTTTTGAC, the switch fluorescence ratio was 0.977.
Sequence TAGTTGGTT has a switch fluorescence ratio of 1.03.
ACAATATACT gave a switch fluorescence ratio of 1.11.
TTGAGTACGC showed a switch fluorescence ratio of 1.23.
For TAAGGTAGTA, the switch fluorescence ratio was 0.954.
AGACTTTAAC was tested, and the switch fluorescence ratio was 1.04.
With GCAGGAATGA the switch fluorescence ratio was 1.05.
Work on TGACCAGCAT yielded a switch fluorescence ratio of 1.13.
GTTGAAATCT was tested, and the switch fluorescence ratio was 1.02.
For GCGGCTATAG, the switch fluorescence ratio was 1.02.
With CCATAATGAT the switch fluorescence ratio was 0.994.
With CAACAGAGTA the switch fluorescence ratio was 1.01.
Sequence GCCTGGGTGC has a switch fluorescence ratio of 1.49.
TCCCCATCAG showed a switch fluorescence ratio of 1.04.
Sequence GTGGGGCCCA has a switch fluorescence ratio of 1.04.
Sequence TGAGAAGCCG has a switch fluorescence ratio of 1.05.
In the case of ACCAGTTTGA, the switch fluorescence ratio is reported as 0.976.
CAATGTGACC was tested, and the switch fluorescence ratio was 1.09.
With CGAATAGATG the switch fluorescence ratio was 0.976.
With GCCGGTAGTG the switch fluorescence ratio was 0.997.
Sequence GGATACGG has a switch fluorescence ratio of 0.947.
With GTCGGTCTCG the switch fluorescence ratio was 0.949.
AACGATTGAG was tested, and the switch fluorescence ratio was 1.05.
In the case of CGGTCGTCGC, the switch fluorescence ratio is reported as 0.979.
CTATTAGTTA gave a switch fluorescence ratio of 0.981.
GTCCTGAT gave a switch fluorescence ratio of 0.965.
Sequence TTGATTAATG has a switch fluorescence ratio of 1.01.
For ATGGCATATC, the switch fluorescence ratio was 1.06.
Work on TACCGTGTGC yielded a switch fluorescence ratio of 0.995.
Work on CCTGTCTGTA yielded a switch fluorescence ratio of 0.984.
For AGTTGTCCCG, the switch fluorescence ratio was 1.01.
Sequence GTCGCTCCAC has a switch fluorescence ratio of 1.09.
For GCAAGAGGTG, the switch fluorescence ratio was 1.16.
